Lines with a small IC50 respond at low doses; fits outside the tested doses are given as limits. AUC is the area under the same curve over the 256-fold range up to the top dose, as a fraction; values near 1 show little effect. For part of these data: The top dose, if marked as inferred, was derived from the fitted curves, not read from the paper. For part of these data: Drugs with an entry number were screened twice under separate entries, and the two screens often disagree.
Experiments:
Test in all cases: Viability of human cancer cell lines after 72 h of drug (GDSC screen)
CHIR-99021 = compound: Cc1cnc(-c2cnc(NCCNc3ccc(C#N)cn3)nc2-c2ccc(Cl)cc2Cl)[nH]1 [CHIR-99021]
Description: (§1)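 Human cancer cell lines in 384-well plates, medium with 10% serum, drug for 72 h over a 256-fold dose range (nine 2-fold or five 4-fold steps up to the top dose). Adherent lines were fixed and stained with the nucleic acid dye Syto60, suspension lines read with resazurin; signal relative to control wells, capped at 0 and 100%. One two-parameter sigmoid per drug and line, fitted in a mixed model over all curves with the slope shared within a line.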

GSK269962A = compound: CCn1c(-c2nonc2N)nc2cnc(Oc3cccc(NC(=O)c4ccc(OCCN5CCOCC5)cc4)c3)cc21 [GSK269962A]; conditions: top dose 5 µM; screen: GDSC drug entry 1192; top dose inferred
Description: as §1

Cytarabine = compound: Nc1ccn([C@@H]2O[C@H](CO)[C@@H](O)[C@@H]2O)c(=O)n1 [Cytarabine]; conditions: top dose 2 µM
Description: as §1

KU-55933 = compound: O=c1cc(-c2cccc3c2Sc2ccccc2S3)oc(N2CCOCC2)c1 [KU-55933]; conditions: top dose 10 µM
Description: as §1

ABT-888 = compound: C[C@]1(c2nc3c(C(N)=O)cccc3[nH]2)CCCN1 [ABT-888]; conditions: top dose 5 µM; top dose inferred
Description: as §1

(5Z)-7-Oxozeaenol = compound: COc1cc(O)c2c(c1)/C=C/C[C@H](O)[C@H](O)C(=O)/C=C\C[C@H](C)OC2=O [(5Z)-7-Oxozeaenol]; conditions: top dose 10 µM; top dose inferred
Description: as §1

Zibotentan = compound: COc1nc(C)cnc1NS(=O)(=O)c1cccnc1-c1ccc(-c2nnco2)cc1 [Zibotentan]; conditions: top dose 20 µM; top dose inferred
Description: as §1

QL-X-138 = compound: C=CC(=O)Nc1cc(-n2c(=O)ccc3cnc4ccc(-c5cn[nH]c5)cc4c32)ccc1C [QL-X-138]; conditions: top dose 10.24 µM; top dose inferred
Description: as §1

MPS-1-IN-1 = compound: COc1cc(N2CCC(O)CC2)ccc1Nc1cc(Nc2ccccc2S(=O)(=O)C(C)C)c2cc[nH]c2n1 [MPS-1-IN-1]; conditions: top dose 20 µM; top dose inferred
Description: as §1

ABT-869 = compound: Cc1ccc(F)c(NC(=O)Nc2ccc(-c3cccc4[nH]nc(N)c34)cc2)c1 [ABT-869]; conditions: top dose 1.024 µM; top dose inferred
Description: as §1

Thapsigargin = compound: C/C=C(/C)C(=O)O[C@H]1C(C)=C2[C@H]([C@@H]1OC(=O)CCCCCCC)[C@@](C)(OC(C)=O)C[C@H](OC(=O)CCC)[C@@]1(O)[C@H]2OC(=O)[C@@]1(C)O [Thapsigargin]; conditions: top dose 0.512 µM; top dose inferred
Description: as §1

CP466722 = compound: COc1cc2ncnc(-n3nc(-c4ccccn4)nc3N)c2cc1OC [CP466722]; conditions: top dose 16 µM; top dose inferred
Description: as §1

[1] = top dose 2.56 µM, screen: GDSC drug entry 154
[2] = top dose 10 µM, screen: GDSC drug entry 1241, top dose inferred

Cell Line	AUC (CHIR-99021; [1])	IC50 (CHIR-99021; [1]) [µM]	AUC (CHIR-99021; [2])	IC50 (CHIR-99021; [2]) [µM]	AUC (GSK269962A)	IC50 (GSK269962A) [µM]	AUC (Cytarabine)	IC50 (Cytarabine) [µM]	AUC (KU-55933)	IC50 (KU-55933) [µM]	AUC (ABT-888)	IC50 (ABT-888) [µM]	AUC ((5Z)-7-Oxozeaenol)	IC50 ((5Z)-7-Oxozeaenol) [µM]	AUC (Zibotentan)	IC50 (Zibotentan) [µM]	AUC (QL-X-138)	IC50 (QL-X-138) [µM]	AUC (MPS-1-IN-1)	IC50 (MPS-1-IN-1) [µM]	AUC (ABT-869)	IC50 (ABT-869) [µM]	AUC (Thapsigargin)	IC50 (Thapsigargin) [µM]	AUC (CP466722)	IC50 (CP466722) [µM]
DMS-273 (small cell lung carcinoma, adherent)	0.917	> 2.56	0.983	> 10	0.955	> 5	0.832	1.38	0.927	> 10	0.985	> 5	0.474	0.527	0.974	> 20	0.479	0.559	0.829	13.5	0.981	> 1.02	0.1	< 0.002	0.852	13.5
DOK (head and neck, adherent)	0.96	> 2.56	0.958	> 10	0.784	3.38	0.86	> 2	0.895	> 10	0.957	> 5	0.533	0.805	0.976	> 20	0.895	> 10.2	0.933	> 20	0.972	> 1.02	0.883	> 0.512	0.82	> 16
Detroit562 (head and neck, adherent)	0.988	> 2.56	0.944	> 10	0.798	2.28	0.852	1.46	0.979	> 10	0.988	> 5	0.772	3.71	0.986	> 20	0.935	> 10.2	0.975	> 20	0.981	> 1.02	0.275	0.00759	0.94	> 16
DoTc2-4510 (cervix, adherent)	0.966	> 2.56	0.959	> 10	0.977	> 5	0.885	1.99	0.913	> 10	0.988	> 5	0.406	0.351	0.989	> 20	0.854	7.41	0.959	> 20	0.983	> 1.02	0.361	0.0135	0.922	> 16
EFM-192A (breast, adherent)	0.908	> 2.56	0.939	> 10	0.907	> 5	0.975	> 2	0.963	> 10	0.976	> 5	0.781	4.62	0.972	> 20	0.985	> 10.2	0.97	> 20	0.982	> 1.02	0.172	0.00281	0.825	11
EFO-27 (ovary, adherent)	0.977	> 2.56	0.868	> 10	0.434	0.197	0.832	1.75	0.956	> 10	0.972	> 5	0.673	2.15	0.971	> 20	0.734	3.59	0.849	> 20	0.973	> 1.02	0.467		0.825	13
EGI-1 (biliary tract, adherent)	0.97	> 2.56	0.961	> 10	0.98	> 5	0.795	1.27	0.982	> 10	0.943	> 5	0.497	0.61	0.978	> 20	0.796	6.5	0.894	> 20	0.977	> 1.02	0.392	0.0148	0.796	10.2
EN (endometrium, adherent)	0.976	> 2.56	0.979	> 10	0.861	> 5	0.947	> 2	0.958	> 10	0.983	> 5	0.949	> 10	0.984	> 20	0.729	3.46	0.862	> 20	0.972	> 1.02	0.585	0.0581	0.839	15.4
ESS-1 (endometrium, adherent)	0.964	> 2.56	0.936	> 10	0.939	> 5	0.925	> 2	0.964	> 10	0.99	> 5	0.317	0.205	0.988	> 20	0.825	5.34	0.99	> 20	0.987	> 1.02	0.112	0.00216	0.858	11
EW-7 (Ewing sarcoma, semi-adherent)	0.99	> 2.56	0.972	> 10	0.867	3.6	0.706	0.436	0.944	> 10	0.985	> 5	0.799	4.12	0.981	> 20	0.298	0.188	0.669	3.45	0.98	> 1.02	0.236	0.00624	0.586	1.67
FTC-133 (thyroid, adherent)	0.977	> 2.56	0.985	> 10	0.782	2.31	0.81	1.18	0.98	> 10	0.969	> 5	0.746	3.45	0.986	> 20	0.986	> 10.2	0.983	> 20	0.986	> 1.02	0.95	> 0.512	0.986	> 16
FU97 (stomach, adherent)	0.986	> 2.56	0.966	> 10	0.606	0.618	0.941	> 2	0.935	> 10	0.979	> 5	0.648	1.63	0.986	> 20	0.873	> 10.2	0.941	> 20	0.985	> 1.02	0.175	0.0032	0.887	> 16
FU-OV-1 (ovary, adherent)	0.969	> 2.56	0.954	> 10	0.917	> 5	0.894	> 2	0.949	> 10	0.98	> 5	0.717	3.17	0.979	> 20	0.678	2.37	0.894	> 20	0.982	> 1.02	0.576	0.0552	0.823	13.6
G-292 Clone A141B1 (osteosarcoma, adherent)	0.696	0.798	0.892	> 10	0.725	2.04	0.713	0.731	0.932	> 10	0.961	> 5	0.773	6.59	0.973	> 20	0.749	5.28	0.788	15.4	0.961	> 1.02	0.19	0.00203	0.879	> 16
G-361 (melanoma, adherent)	0.93	> 2.56	0.964	> 10	0.87	4.35	0.777	0.769	0.965	> 10	0.988	> 5	0.348	0.242	0.988	> 20	0.988	> 10.2	0.866	16.6	0.973	> 1.02	0.231	0.00552	0.986	> 16
G-401 (kidney, adherent)	0.983	> 2.56	0.982	> 10	0.881	> 5	0.764	0.798	0.952	> 10	0.984	> 5	0.342	0.216	0.984	> 20	0.798	5.44	0.768	8.2	0.979	> 1.02	0.178	0.00303	0.83	11.4
GMS-10 (glioma, adherent)	0.987	> 2.56	0.953	> 10	0.904	> 5	0.674	0.381	0.972	> 10	0.988	> 5	0.624	1.37	0.986	> 20	0.935	> 10.2	0.988	> 20	0.988	> 1.02	0.982	> 0.512	0.988	> 16
H2369 (mesothelioma, adherent)	0.985	> 2.56	0.972	> 10	0.788	2.28	0.35	0.0473	0.978	> 10	0.985	> 5	0.689	2.15	0.98	> 20	0.931	> 10.2	0.969	> 20	0.983	> 1.02	0.081	< 0.002	0.956	> 16
H2373 (mesothelioma, adherent)	0.974	> 2.56	0.98	> 10	0.819	3.84	0.622	0.296	0.977	> 10	0.983	> 5	0.682	2.31	0.981	> 20	0.797	6.32	0.93	> 20	0.983	> 1.02	0.438	0.0207	0.842	15.8
H2461 (mesothelioma, adherent)	0.983	> 2.56	0.862	> 10	0.904	> 5	0.833	1.76	0.977	> 10	0.982	> 5	0.715	3	0.979	> 20	0.939	> 10.2	0.983	> 20	0.982	> 1.02	0.376	0.0133	0.921	> 16

Reference: the supplement of paper PMC4967469
